Our source for the survival values is PubChem BioAssay AID463173 (ICCB-Longwood Screening Facility, Harvard Medical School, 2010).

About 4,300 (8.3%) of roughly 52,000 compounds were called active. Cut-off read from the data, not from the text of the source: active = survival mostly below about 52% (no sharp cut-off); inactive = mostly above about 56%. This is one part of the list.

This test has as its system DeltatarO mutant. Nature of the test: growth inhibition of S. aureus wild type versus tarO mutant, primary screen, teichoic acid synthesis inhibitors, RN4220, OD600 (AID 463173). The settings on record: OD600, 18 h, stronger effect = lower value, screened at 18.75 µg/mL (by protocol).
With `COc1cccc(N2CCN(C(=O)c3cnn(C(C)(C)C)c3C3CCN(C(=O)OC(C)(C)C)CC3)CC2)c1`, the survival was inactive: 76%. On to `O=C(c1ccc2c(c1)CCN2S(=O)(=O)c1ccccc1)N1CCN(c2ccc(F)cc2)CC1`, for which the survival was inactive: 50%.

`Cc1ccc(S(=O)(=O)NCCc2cn3c(C)csc3n2)cc1`: the survival was inactive: 67%. As to `Cc1cccc(NC(=O)C2CCN(c3nnc(-n4c(C)ccc4C)s3)CC2)c1C`, the survival was inactive: 94%. `COc1ccc(-c2nnc(C3CCN(C(=O)c4ccccc4F)CC3)o2)cc1`: the survival is inactive: 92%.

In the case of `Cc1ccc2nc(-c3cc(NC(=O)c4ccc5c(c4)OCCO5)ccc3Cl)oc2c1`, the survival is inactive: 82%.

On to `COc1ccc(C2Sc3ccccc3NC3=C2C(=O)c2ccccc23)c(OC)c1OC` (centres undefined), for which the survival is inactive: 77%. Under `COc1ccc(C(=O)n2cnnc2N)cc1` stands inactive: 103%; under `COc1ccc(-c2onc(C)c2C)cc1S(=O)(=O)N1c2ccccc2CC1C` (centres undefined), inactive: 80%. With `CCc1ccccc1NC(=O)Cn1c(-c2nonc2N)nc2ccccc21`, the survival is inactive: 86%. Under `COCc1[nH]nc2c1C1(CCC(C(C)(C)C)CC1)C(C#N)=C(N)O2` (centres undefined) stands inactive: 96%; under `O=C(NCCc1csc(-c2ccc(Cl)cc2)n1)c1cccs1`, inactive: 89%. `COC(=O)c1c(NC(=O)CCCOc2ccc(C(C)(C)C)cc2)sc2c1CCC(C)C2` (centres undefined): the survival was active: 28%. `COc1ccc(NC(=O)/C(C#N)=C/c2ccc(OCc3cc(=O)n4nc(C)sc4n3)cc2)cc1`: the survival was inactive: 61%.

With `COC(=O)c1ccc(-n2nc(C)cc2C)cc1`, the survival was inactive: 95%. Under `CC1CCN(C(=O)CSc2nnc(-c3ccccc3Cl)o2)CC1` stands inactive: 104%. `CCN(C(=O)Cn1nc(Cc2cccnc2)c2ccccc2c1=O)c1ccccc1F`: the survival was inactive: 84%. `O=S(=O)(Nc1ccc2oc3c(c2c1)CCCC3)c1cc(Cl)ccc1Cl`: the survival is active: 33%.

For `CCN(CC)Cn1nc(-c2ccccc2Cl)oc1=S`, the survival was inactive: 77%. The result for `CC(C)COc1ccc(C(=O)Nc2cccc(-c3nc4ccccc4[nH]3)c2)cc1` reads active: 43%; that for `Cc1cc(C)cc(NC(=O)CCS(=O)(=O)c2cc3c4c(c2)CCN4C(=O)CC3)c1`, inactive: 74%; that for `CCc1ccc(OC(C)C(=O)N2CCC(c3nc4ccccc4s3)CC2)cc1` (centres undefined), active: 28%. Under `O=C(NC1(C(F)(F)F)C(=O)Nc2c1c(=O)[nH]c(=O)n2CCc1ccccc1)c1ccc(Cl)cc1Cl` (centres undefined) stands inactive: 76%; under `COc1ccccc1-c1cc2nc(C)c(CCC(=O)Nc3ccc(Br)c(C)c3)c(C)n2n1`, inactive: 67%; under `CN(Cc1ccccc1)Cn1[nH]c(=O)ccc1=O`, inactive: 110%.

Take `CCn1cc(C(=O)N2CCN(c3cccc(C(F)(F)F)c3)CC2)c2cc(OC)c(OC)cc2c1=O`: the survival is inactive: 120%. The result for `CC(C)CN(CCCNC(=O)Cn1ncc2c3ccccc3n(C)c2c1=O)CC(C)C` reads inactive: 92%; that for `COc1ccc(Cl)cc1NC(=O)CCS(=O)(=O)c1nc(-c2cccs2)cc(C(F)(F)F)n1`, inactive: 63%. Under `CCOC(=O)c1ccc(NC(=O)Nc2c[nH]c(=O)[nH]c2=O)cc1` stands inactive: 99%; under `Cc1ccc(CNC(=O)c2cc3c(s2)-c2ccccc2SC3)cc1`, inactive: 94%; under `CCOC(=O)c1cc(-c2ccccc2)n(CC(=O)NC(C)c2ccccc2)c1C` (centres undefined), inactive: 91%. For the compound `COC(=O)c1nnn(CC(=O)NC(=O)Nc2cccc(C)c2C)c1C(=O)OC`, the survival was inactive: 82%.

For the compound `CCc1nc2ccc(C(=O)N3CCN(c4ccccc4)CC3)cc2nc1CC`, the survival was inactive: 113%. The result for `COc1ccc2c(c1)CCc1c(C(=O)Nc3ccc(F)c(Cl)c3)noc1-2` reads inactive: 62%; that for `CCOc1ccc(/C=C(\C#N)c2nc3ccccc3c(=O)[nH]2)cc1OC`, inactive: 94%; that for `O=C(CSc1nnc(-c2ccccc2)c(-c2ccccc2)n1)NC1CCCCC1`, inactive: 85%.

Regarding `CCOc1ccc(-c2nonc2NC(=O)c2oc3ccc(Br)cc3c2C)cc1`, the survival is inactive: 50%.

Regarding `CCOC(=O)N1CCc2c(sc(NCc3cccc(F)c3)c2C(=O)Nc2ccccc2OCC)C1`, the survival was inactive: 89%. With `Cc1nc(N2C(=O)c3oc4ccccc4c(=O)c3C2c2cccc(OCCC(C)C)c2)sc1C` (centres undefined), the survival was inactive: 59%. Take `Cc1ccc(N2CC(NC(=O)Cc3cccs3)CC2=O)cc1C` (centres undefined): the survival is active: 25%. `O=S(=O)(Nc1ccc(-c2ccc(N3CCCC3)nn2)cc1)c1ccc(Cl)cc1`: the survival is inactive: 102%.

Regarding `Cc1c(C(=O)OC2CCCC2)[nH]c2c1C(=O)CC(c1ccc(Cl)cc1)C2` (centres undefined), the survival is inactive: 94%.

As to `COc1ccc(C(C(=O)NC2CCCC2)N(Cc2ccco2)C(=O)Cn2nc(C(F)(F)F)c3c2CCCC3)cc1` (centres undefined), the survival was inactive: 91%.

Consider `COc1ccc(CNc2oc(C)nc2C#N)cc1`, for which the survival was inactive: 88%.

Turning to `CC(=O)N1CCc2c(sc3c2c(=O)n(-c2ccccc2)c(=O)n3CC(=O)Nc2cccc(C)c2)C1`, the survival is inactive: 73%. Take `CCOc1ccc(CNS(=O)(=O)c2c(C(=O)N3CCC(C)CC3)c(C)n(C)c2C)cc1OC`: the survival is inactive: 81%. Consider `CCOc1cc(-c2nnc(SCC(=O)Nc3ccc(F)c(F)c3)nc2-c2ccc(OC)c(OCC)c2)ccc1OC`, for which the survival is inactive: 96%. The result for `COc1ccc(S(=O)(=O)N(CCc2ccccc2)CC(=O)Nc2ccc(C)c(C)c2)cc1OC` reads inactive: 62%; that for `CCC(=O)Nc1nnc(SCc2cc(=O)c3cc(C)ccc3[nH]2)s1`, inactive: 77%; that for `Cc1csc(-c2cc3ccccc3oc2=O)n1`, inactive: 85%. As for `O=C(Nc1cccc(-c2nc3ccccc3o2)c1)c1ccc(-c2ccc(Br)cc2)o1`, the survival was active: 39%. Under `O=C(c1ccc(F)cc1)N1c2nc(-c3ccco3)nn2C2(CCCCC2)[C@@H]2CCCC[C@@H]21` stands inactive: 53%.

As for `CC1CCCN(S(=O)(=O)c2ccc(N)cc2)C1` (centres undefined), the survival is inactive: 91%. In the case of `CCOc1ccc(OCC)c(NS(=O)(=O)c2cc(Br)cc3c2N(C(C)=O)C(C)C3)c1` (centres undefined), the survival is inactive: 65%. On to `Cc1cc(=O)[nH]c(SC(C)C(=O)Nc2ccccc2)n1` (centres undefined), for which the survival was inactive: 90%. `CC(C)N(C(=O)CSc1nc2ccc(Cl)cc2[nH]1)c1ccccc1`: the survival was inactive: 107%. In the case of `Nc1nc2cc3c(cc2s1)OCCO3`, the survival is inactive: 105%. On to `Nc1cccc2c1C(=O)N(CC(=O)O)C2=O`, for which the survival was inactive: 99%. Under `CCN(CC)C(=O)CSc1nc(-c2ccccc2F)nc2c1Cc1c(CO)cnc(C)c1O2` stands inactive: 101%; under `Cc1c(-c2ccc(Br)cc2)c(=O)oc2ccc(OC(=O)N3CCOCC3)cc12`, inactive: 86%. In the case of `COc1ccc(OC)c(-c2nnc3n(Cc4ccc(C)cc4)c(=O)c4ccccc4n23)c1`, the survival is inactive: 88%. Take `CC(C)(C)OC(=O)N1CCC(c2c(C(=O)N3CCCCC3)cnn2-c2ccc(Cl)cc2)CC1`: the survival was inactive: 66%. For `CCOc1cc(C(=O)NCCc2csc3nc(-c4ccc(C)cc4)nn23)cc(OCC)c1OCC`, the survival is inactive: 94%. Regarding `COC(=O)c1ccccc1NC(=O)CSc1nc2ccsc2c(=O)n1CCC(C)C`, the survival is inactive: 88%. The result for `c1ccc(CSc2ncnc3c2cnn3-c2ccccc2)cc1` reads inactive: 116%; that for `CC(=O)c1cccc(NC(=O)c2sc(-n3nc(C)c(Cc4ccc5c(c4)OCO5)c3C)nc2C)c1`, inactive: 87%. The result for `CCOc1ccc(-c2cccc(NS(=O)(=O)c3c(C)cc(C)cc3C)c2)nn1` reads inactive: 87%.

As for `COc1ccccc1CCNC(=O)C(=O)NCC(c1ccc2c(c1)OCO2)N1CCOCC1` (centres undefined), the survival is inactive: 83%. The result for `Cc1ccc2oc3c(c(=O)c2c1)C(c1ccc(F)cc1)N(Cc1ccc2c(c1)OCO2)C3=O` (centres undefined) reads inactive: 77%; that for `COc1cccc(CNC(=O)C(=O)Nc2c3c(nn2-c2ccccc2)CSC3)c1`, inactive: 84%.

Consider `CCN(C(=O)C1CCN(S(=O)(=O)c2ccc3c(c2)CCCN3C(C)=O)CC1)c1cccc(C)c1`, for which the survival is inactive: 88%. Regarding `Cc1c(Cl)cccc1NC(=O)Cn1c(CCC(=O)O)ccc1-c1cccs1`, the survival is inactive: 50%. For `CCOC(=O)c1c(NC(C)=O)c2c3c(sc2n1Cc1nc(-c2cccc(Cl)c2)oc1C)CCCC3`, the survival is inactive: 96%. As for `CCOC(=O)c1c(S(=O)(=O)N2CCCC(C(=O)NCc3ccc(Cl)cc3)C2)c(C)n(C)c1C` (centres undefined), the survival is inactive: 73%. The result for `COc1ccc(F)cc1S(=O)(=O)NCCc1csc2nc(-c3cccc(C)c3)nn12` reads inactive: 102%; that for `COC(=O)c1ccc(OCC2c3cc(OC)c(OC)cc3CCN2C(=O)COc2ccc(Cl)cc2)cc1` (centres undefined), inactive: 78%; that for `O=C(c1ccccc1Cl)N1c2ncnn2C2(CCCCC2)[C@@H]2CCCC[C@@H]21`, inactive: 96%. As to `Cc1cc(C)nc(SCC(=O)Nc2nc(=O)c3ccccc3s2)n1`, the survival is inactive: 73%. Under `COc1ccc(Cc2nc3ccccc3[nH]c2=O)cc1` stands inactive: 58%; under `C=Cc1ccc(Cn2c(C)c(CNCc3cccc(Br)c3)c(C(=O)O)c2C)cc1`, inactive: 73%; under `Cc1cccc(Cn2c(CNS(=O)(=O)c3ccc4c(c3)CCCC4)nc3cccnc32)c1`, inactive: 102%. Turning to `CCCCN(C(=O)C1CCC1)c1nnc(-c2ccncc2)s1`, the survival is inactive: 96%.

As to `Cc1c(Cl)cccc1-c1ccc(C(=O)Nc2ccc(F)cc2)o1`, the survival was active: 1%. Under `CCOC(=O)C1=C(C)NC(=O)NC1c1ccccc1` (centres undefined) stands inactive: 70%; under `Cc1ccc(-n2c(=O)c3c(C)c(C(=O)N(C)C)sc3n(CC(=O)C(C)(C)C)c2=O)cc1C`, inactive: 107%.

Take `CCc1ccc(-n2nc(C)c3c(C)cc(=O)n(CC(=O)N4CCCc5ccccc54)c32)cc1`: the survival is inactive: 82%.

As for `O=c1cc(-c2ccccc2)n2c(SCc3ccccc3)nnc2[nH]1`, the survival was inactive: 80%. As for `Cc1ccc(C(=O)NCC(=O)O)o1`, the survival is inactive: 100%. As to `Cc1c(C(=O)N(Cc2ccccc2F)C2CCS(=O)(=O)C2)oc2ccc(F)cc12` (centres undefined), the survival was inactive: 95%.
